Test results from PMC11155029.
No constants are given. Whether binding was seen depends on the method and setting. Binding seen in cells or lysates may run through a third protein. Some binding calls cover weakened binding; strength is not graded here.

Target: TAR-DNA binding protein 43 (TDP43) (human (endogenous in SH-SY5Y, HEK293 and human spinal cord tissue)), Q13148
Assay: proximity ligation; PLA in HEK293 cells, with and without MMS (DNA damage induction); positive control; foci per nucleus
Conditions: remark: other sources report otherwise

B1: X-ray repair cross-complementing protein 4 (XRCC4), Q13426 1-336 (protein)
chain: MERKISRIHLVSEPSITHFLQVSWEKTLESGFVITLTDGHSAWTGTVSESEISQEADDMAMEKGKYVGELRKALLSGAGPADVYTFNFSKESCYFFFEKNLKDVSFRLGSFNLEKVENPAEVIRELICYCLDTIAENQAKNEHLQKENERLLRDWNDVQGRFEKCVSAKEALETDLYKRFILVLNEKKTKIRSLHNKLLNAAQEREKDIKQEGETAICSEMTADRDPVYDESTDEESENQTDLSGLASAAVSKDDSIISSLDVTDIAPSRKRRQRMQRNLGTEPKMAPQENQLQEKENSRPDSSLPETSKKEHISAENMSLETLRNSSPEDLFDEI
In the case of B1, the binding is reported as “binds”.
